# Data from the supplement of paper PMC4166925.
# ± gives the standard deviation of the averaged measurements. The full ranking holds about 33,000 sequences; the median of “E-score (dimensionless, -0.5 to 0.5)” is about -0.046, and the highest 2% start at about 0.36. This is one part of the list.
# System: T1, SpTbr T-box DNA-binding domain (GST fusion)
# T1 sequence: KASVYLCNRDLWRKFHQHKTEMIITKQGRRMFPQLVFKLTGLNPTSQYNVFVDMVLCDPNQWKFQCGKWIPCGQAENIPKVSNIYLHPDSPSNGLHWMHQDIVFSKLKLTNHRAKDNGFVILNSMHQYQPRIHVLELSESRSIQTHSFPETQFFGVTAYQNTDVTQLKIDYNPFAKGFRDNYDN
# Assay: PBM E-score of 8-mer (E-score (dimensionless, -0.5 to 0.5)); Tbr is Tbrain of the sea star Patiria miniata (Pm) or the sea urchin Strongylocentrotus purpuratus (Sp); higher = stronger binding preference; most listed sequences are background and not binding sites
# Conditions: the construct has about 5 more residues each side
# Summary of the method: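 Universal Agilent oligonucleotide arrays, made double-stranded by primer extension, were incubated with 200 nM GST-fused Tbr T-box DNA-binding domain in PBS (pH 7.5). The protein was expressed in BL21 E. coli at 20 °C and purified by glutathione affinity chromatography. After scanning and quantification, the Universal PBM Analysis Suite assigned an enrichment E-score to each ungapped 8-mer, averaged over duplicate arrays.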
row,Sequence,PBM E-score of 8-mer
1,CCGATCGA,-0.0327 ± 0.037
2,AGTCACGC,0.3794 ± 0.0033
3,TCCCAGGA,-0.155 ± 0.054
4,GATAGAAA,-0.0476 ± 0.0012
5,AAATCTTC,-0.184 ± 0.031
6,GAATTCCA,0.00328 ± 0.042
7,ACTTGGGC,0.0268 ± 0.1
8,CCTAAGAG,-0.381 ± 0.025
9,AGAGAACC,-0.22 ± 0.061
10,TGGCCCCA,0.136 ± 0.045
11,AGAGAACA,0.00498 ± 0.081
12,ACATAGCC,-0.224 ± 0.018
13,ATTCCCGC,0.0284 ± 0.028
14,CCCGCTGA,0.0266 ± 0.031
15,AGGAGCCG,0.145 ± 0.016
16,CCCTATTC,-0.098 ± 0.02
17,AGGCAGAG,-0.158 ± 0.03
18,AACTATTC,-0.058 ± 0.029
19,ACTCCACC,-0.0731 ± 0.091
20,GGTGGTCA,0.0202 ± 0.028
21,TGTGGAAA,0.189 ± 0.046
22,ATCTTTTC,-0.076 ± 0.041
23,CACCTCGC,0.439 ± 0.012
24,AGTTATTG,-0.116 ± 0.024
25,CAAGCGTA,-0.0764 ± 0.029

row,Sequence,PBM E-score of 8-mer
1,AAGCCCTA,-0.219 ± 0.0039
2,CTTAACAC,0.429 ± 0.017
3,CCCTGCAA,-0.16 ± 0.039
4,ACGGGAGT,0.0565 ± 0.039
5,CACATTCC,0.139 ± 0.02
6,CCCATAGG,-0.162 ± 0.032
7,GTATCAAA,-0.262 ± 0.055
8,CCTTGGCA,0.217 ± 0.058
9,GTTATCGA,0.179 ± 0.041
10,ACTTAAAA,-0.158 ± 0.074
11,ATGCGCGC,0.157 ± 0.021
12,ACGGTTGC,0.121 ± 0.067
13,AAGGGGCC,-0.137 ± 0.0041
14,CTGGCCAA,-0.153 ± 0.029
15,CGGCTATC,-0.169 ± 0.048
16,ACACGGTC,0.0193 ± 0.02
17,AGTTACAG,-0.146 ± 0.064
18,CACGATAG,-0.00949 ± 0.03
19,CCAAATGA,-0.214 ± 0.025
20,AGCTGGGC,-0.183 ± 0.028
21,GCAGTCAA,0.0789 ± 0.012
22,CGAACGCC,0.143 ± 0.055
23,AGCGGAAT,-0.162 ± 0.011
24,GATCATTA,-0.229 ± 0.0073
25,AAATTCGA,-0.037 ± 0.13

row,Sequence,PBM E-score of 8-mer
1,GGCATTGA,-0.2119 ± 0.0014
2,AGATCGAC,-0.0961 ± 0.033
3,TCCACACA,0.305 ± 0.0032
4,CTAAAAAG,-0.0115 ± 0.032
5,CAGTGTCG,0.266 ± 0.0072
6,GCCAAGGC,0.0335 ± 0.021
7,AATATTTA,-0.205 ± 0.06
8,ATGCACTG,-0.244 ± 0.048
9,ATTGGGAG,-0.168 ± 0.032
10,ACCAAAGA,-0.067 ± 0.035
11,TAGCAATA,0.0438 ± 0.026
12,CACTACTC,-0.109 ± 0.0032
13,AGAACAAT,-0.0181 ± 0.019
14,CGTATAGC,-0.0189 ± 0.00065
15,GTCGTAAA,-0.0128 ± 0.013
16,CCAACACC,0.4264 ± 0.0023
17,AAAGTGTG,0.441 ± 0.0064
18,AAAACTCC,-0.156 ± 0.054
19,ATCTTGCA,-0.167 ± 0.0076
20,CCGGACAC,0.0552 ± 0.0014
21,GAAGCACC,-0.114 ± 0.056
22,GACTACTC,-0.0344 ± 0.062
23,CCGTGCAG,-0.0645 ± 0.088
24,ACGTGTAC,0.0673 ± 0.011
25,CTCGCCGA,0.00928 ± 0.1

row,Sequence,PBM E-score of 8-mer
1,AGTATAAT,-0.0592 ± 0.009
2,ATCGGATC,-0.0422 ± 0.034
3,AGGCGTTA,0.434 ± 0.018
4,CAATCCAA,0.2149 ± 0.00083
5,CAAAGATA,-0.0142 ± 0.053
6,TACTACCA,-0.244 ± 0.0066
7,CGTCCAGA,-0.14 ± 0.057
8,GCATATCC,0.0811 ± 0.1
9,CGAATTCG,0.101 ± 0.017
10,GAACGCGA,0.186 ± 0.049
11,AGAGCAGA,-0.202 ± 0.049
12,ATATGTAC,-0.195 ± 0.0059
13,CGCGCACC,0.266 ± 0.033
14,ACCGTATA,-0.0971 ± 0.063
15,AGACGGAT,-0.122 ± 0.058
16,ATAGAAAA,-0.102 ± 0.092
17,AAGCCGCT,-0.0961 ± 0.043
18,CAGAGGCA,-0.202 ± 0.029
19,AGATACTG,-0.164 ± 0.008
20,ACTCTCAC,0.285 ± 0.036
21,CATAATAA,-0.138 ± 0.012
22,AATTGCGT,-0.129 ± 0.012
23,CCTGAATA,-0.0462 ± 0.017
24,CACACAGC,0.3041 ± 0.00096
25,AATATTGC,-0.0727 ± 0.02

row,Sequence,PBM E-score of 8-mer
1,AATGACGA,0.0109 ± 0.005
2,CCTTGTCA,0.2984 ± 0.0013
3,AGCGCTCA,0.18 ± 0.041
4,AAATGTGA,0.235 ± 0.053
5,GATATACA,-0.11 ± 0.057
6,AGAGTCCG,-0.247 ± 0.017
7,ACCTTGTC,0.246 ± 0.036
8,AGAGTTCC,-0.201 ± 0.047
9,ACTCCGTG,-0.129 ± 0.043
10,AAACTGGG,-0.0707 ± 0.0073
11,CTATGCCC,-0.358 ± 0.019
12,ATTACGCA,-0.00702 ± 0.012
13,CGAGGTCC,-0.207 ± 0.017
14,AAACCTCT,-0.292 ± 0.061
15,ATTCCATG,0.0479 ± 0.017
16,GACCATCC,-0.25 ± 0.017
17,CCGATAAA,-0.0119 ± 0.097
18,CACAGACA,0.103 ± 0.0082
19,CTCCTAAG,-0.217 ± 0.051
20,GGGTGATA,0.253 ± 0.0088
21,AGGGGCCG,-0.0731 ± 0.021
22,ATGCATTG,-0.0745 ± 0.048
23,CGCGATAA,0.328 ± 0.0095
24,CAGATGGA,-0.158 ± 0.059
25,ACTACACA,0.0428 ± 0.0095

row,Sequence,PBM E-score of 8-mer
1,AACAGGTC,0.107 ± 0.0057
2,ATGAAAAC,-0.254 ± 0.013
3,TGACAGAA,-0.0128 ± 0.042
4,ATGTCTGC,0.00839 ± 0.0021
5,AACGACCC,-0.0318 ± 0.0063
6,GCACTATA,0.0124 ± 0.00081
7,TCGCGTCA,0.29 ± 0.0031
8,GTCCATTA,-0.262 ± 0.04
9,CCCGGAGC,-0.183 ± 0.018
10,CATCTCCG,-0.0139 ± 0.13
11,CCCACTCC,-0.0138 ± 0.014
12,AAGCCACA,0.0226 ± 0.023
13,ATTCTTCC,-0.0473 ± 0.032
14,GCACACCA,0.221 ± 0.03
15,CCGCCATA,-0.0471 ± 0.036
16,ACAAGTAC,0.0482 ± 0.071
17,CACAGCAC,0.218 ± 0.028
18,GGCTACAC,0.0183 ± 0.004
19,AATTTTCG,0.0998 ± 0.027
20,AGGACAAG,-0.105 ± 0.1
21,GGATCAAA,-0.0491 ± 0.031
22,AAAGACGA,-0.0625 ± 0.044
23,GGATCGCC,-0.191 ± 0.016
24,GACAGGTA,0.104 ± 0.0041
25,AGGGAGAG,-0.0232 ± 0.035

row,Sequence,PBM E-score of 8-mer
1,ATGTTTCA,-0.181 ± 0.054
2,GAAGGGAC,-0.00202 ± 0.015
3,AAGACCAT,-0.17 ± 0.032
4,CCGGGACC,-0.187 ± 0.015
5,CGTATATA,-0.0571 ± 0.062
6,CTCACAAG,0.173 ± 0.039
7,GAGATCAA,-0.113 ± 0.019
8,AAGCTGAT,-0.176 ± 0.038
9,CCTATAGA,-0.103 ± 0.0043
10,CCCCGAAG,-0.174 ± 0.043
11,AGTTCTCC,-0.062 ± 0.011
12,CTAAATCC,-0.125 ± 0.04
13,GCTTGTAA,-0.0483 ± 0.034
14,ATCCATGG,-0.315 ± 0.004
15,CGGGATTC,-0.0949 ± 0.03
16,AACGCTAA,0.108 ± 0.031
17,CTTTGGTC,-0.163 ± 0.0098
18,AGGTAGGC,-0.0842 ± 0.03
19,AGCACTAA,0.0592 ± 0.043
20,CACGTCGA,0.16 ± 0.051
21,CATTGAGG,-0.197 ± 0.078
22,CCTTGGTA,0.0315 ± 0.045
